Results: PubChem BioAssay AID624417 (National Center for Advancing Translational Sciences (NCATS), 2012)
The campaign covered roughly 410,000 compounds. About 6,400 (1.6%) were called active. Inconclusive results, whose numbers are uncertain, are shown with a selection of clear calls. The call rests on the fitted dose curve; in most records, active means well fitted inhibition curve with a large enough effect; inconclusive means small, poorly fitted or top-dose-only effect; inactive means no such curve, though single readings can be large or run the other way. Potencies of inconclusive entries are left out as doubtful fits.

These compounds were tested against Glucagon-like peptide 1 receptor (Homo sapiens) (UniProt P43220) (assay: qHTS of GLP-1 Receptor Inverse Agonists (Inhibition Mode)). Conditions: HEK293 GLP-1R CRE-luciferase, luminescence, 24 h, GLP-1R form is constitutively active; activity change, negative = inhibition: at 38.3 µM (top of the series) unless noted.
Summary of the method: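 Stable HEK293 clone (constitutively active GLP-1R + cAMP-response luciferase); 200 cells/uL plated, 12 h pre-culture, compound 24 hr, 37 deg C/5% CO2; detection reagent 12 min RT; luminescence.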
Further: nearly all actives have a fitted effect of over 55% in size.
On the % scale 0 is the no-effect control and ±100 the full control effect; potency means the concentration at half of the fitted maximal effect; tags describe the fitted curve by direction and shape.

Sequence of UniProt P43220 (P43220 whole entry, looked up): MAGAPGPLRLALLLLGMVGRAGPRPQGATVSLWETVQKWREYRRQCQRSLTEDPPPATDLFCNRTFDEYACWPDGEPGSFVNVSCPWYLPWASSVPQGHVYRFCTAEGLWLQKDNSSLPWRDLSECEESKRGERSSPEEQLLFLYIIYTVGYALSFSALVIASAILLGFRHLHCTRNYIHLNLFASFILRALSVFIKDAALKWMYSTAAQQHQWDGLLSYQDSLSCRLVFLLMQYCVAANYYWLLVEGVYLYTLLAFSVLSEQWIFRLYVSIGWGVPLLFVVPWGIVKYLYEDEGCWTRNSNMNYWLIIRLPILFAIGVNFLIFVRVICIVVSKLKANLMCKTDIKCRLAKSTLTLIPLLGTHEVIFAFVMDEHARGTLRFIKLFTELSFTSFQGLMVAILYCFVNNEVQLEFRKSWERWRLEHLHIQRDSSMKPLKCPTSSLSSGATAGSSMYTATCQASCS

| Compound | Potency | activity change, negative = inhibition |
| --- | --- | --- |
| Cc1ccc2oc3c(c(=O)c2c1)C(c1ccc(F)cc1)N(Cc1ccc2c(c1)OCO2)C3=O (configuration not stated) | inactive | – |
| CN(C)c1cccc(C(=O)NCCCn2ccc3ccccc32)c1 | inconclusive [inhibitor, full curve, poor fit] | – |
| CCN(C(=O)C1CCN(S(=O)(=O)c2ccc3c(c2)CCCN3C(C)=O)CC1)c1cccc(C)c1 | inactive | – |
| COc1ccccc1OCC(=O)NCC(c1ccc(Cl)cc1)N1CCCCC1 (configuration not stated) | inconclusive [inhibitor, single point] | – |
| CCc1ccccc1NC(=O)CCNS(=O)(=O)c1cc(Br)cnc1N | inconclusive [inhibitor, partial curve, poor fit] | – |
| COc1ccc(-c2cc3nc(-c4ccc(C)cc4)cc(C(F)(F)F)n3n2)cc1 | inactive | – |
| CCN(CC)S(=O)(=O)c1ccc(C)c(NC(=S)N2CCN(c3ccccn3)CC2)c1 | inconclusive [inhibitor, partial curve, poor fit] | – |
| Cc1nc(NC(=O)CSc2nc3cccnc3n2Cc2ccccc2)sc1C | inconclusive [inhibitor, single point] | – |
| CCCCn1nnnc1C(c1ccccc1)N1CCN(c2cccc(C)c2C)CC1 (configuration not stated) | inconclusive [inhibitor, single point] | – |
| COc1ccc(Cl)cc1N(CC(=O)N/N=C/c1ccc(OC(C)C)cc1)S(=O)(=O)c1ccc(C)c([N+](=O)[O-])c1 | inconclusive [inhibitor, partial curve, poor fit] | – |
| CN(C(=O)CSc1nc2scc(-c3ccccc3)c2c(=O)[nH]1)c1ccccc1 | inconclusive [inhibitor, single point] | – |
| CCCCCCCNC(=O)COc1ccc2c(c1)C(=O)CC(C)(C)O2 | inactive | – |
| Cc1ccc(SCCNC(=O)c2ccc(CN3CCOCC3)cc2)cc1 | inconclusive [inhibitor, single point] | – |
| O=C(CN1CCN(c2ccc(O)cc2)CC1)Nc1cc([N+](=O)[O-])ccc1Cl | inconclusive [inhibitor, partial curve, poor fit] | – |
| CC(C)(C)N1C(=O)[C@H]2[C@@H](c3ccc(Br)cc3)N3C(=O)N(c4cccc(F)c4)C(=O)[C@@]3(C)[C@H]2C1=O | inconclusive [inhibitor, single point] | – |
| O=C(c1ccc(F)cc1)N1c2nc(-c3ccco3)nn2C2(CCCCC2)[C@@H]2CCCC[C@@H]21 | inconclusive [inhibitor, single point] | – |
| CCOc1ccc(Cl)cc1C1=CC(=O)C[C@H](c2ccc(OC)cc2)C1 | inconclusive [inhibitor, full curve, poor fit] | – |
| CS/C(=N\S(=O)(=O)c1cccs1)Nc1ccc(Br)cc1F | inconclusive [inhibitor, single point] | – |
| CCOC(=O)N1CCN(C(=O)c2cccn3c(=O)c4cc(Br)ccc4nc23)CC1 | – | inactive: 7.49% [at 7.66 µM] |
| Cc1cc(N/N=C/c2ccccc2)nc(NCc2ccccc2)n1 | inconclusive [inhibitor, partial curve, poor fit] | – |
| CCOC(=O)c1ccc(NC(=O)CSc2nnc(-c3cccs3)n2CC)cc1 | inactive | – |

| Compound | Potency | activity change, negative = inhibition |
| --- | --- | --- |
| N#Cc1c(N)c(C#N)c(-c2ccc3c(c2)OCO3)c2c1CCCC2 | inactive | – |
| CCOC(=O)CCCCCN(Cc1ccccc1)S(=O)(=O)c1ccc([N+](=O)[O-])cc1 | inconclusive [inhibitor, single point] | – |
| COc1ccccc1NC(=S)NC1CCCCCC1 | inconclusive [inhibitor, single point] | – |
| Cc1cccc(NC(=O)c2oc(=O)c3ccccc3c2-c2ccccc2)c1C | inconclusive [inhibitor, partial curve] | – |
| O=C(COc1ccc(F)cc1Cl)N(Cc1nnc(-c2ccccc2Cl)o1)C1CC1 | inconclusive [inhibitor, partial curve, poor fit] | – |
| CCc1nc2c(OCc3ccccc3C(=O)OC)cccn2c1N(C)C(=O)c1cccs1 | inconclusive [inhibitor, partial curve, poor fit] | – |
| Cc1ccc(NS(=O)(=O)c2ccc3c(c2)N(C)CCO3)cc1 | inconclusive [inhibitor, single point] | – |
| CCCCCCCCCCCCC(NC(C)=O)(C(=O)OCC)C(=O)OCC | inconclusive [inhibitor, single point] | – |
| COc1ccc(C(c2nnnn2C2CCCCC2)N2CCN(c3ccccc3F)CC2)cc1 (configuration not stated) | inconclusive [inhibitor, partial curve, poor fit] | – |
| O=C(N/N=C/c1ccc(O)cc1)c1cncc(Br)c1 | – | inconclusive: -33.4% [inhibitor] |
| COc1ccccc1CNC(=O)CCCc1nnc2n(CC(C)C)c(=O)c3sccc3n12 | inactive | – |
| CC(C)N(C(=O)CSc1nc2ccc(Cl)cc2[nH]1)c1ccccc1 | inconclusive [inhibitor, partial curve, poor fit] | – |
| c1ccc(C(CN2CCCCC2)Oc2ccccn2)cc1 (configuration not stated) | inconclusive [inhibitor, partial curve] | – |
| Cc1cc(C)cc(NS(=O)(=O)c2ccc(Oc3ncc(C(F)(F)F)cc3Cl)cc2)c1 | inconclusive [inhibitor, single point] | – |
| CC(=O)Nc1cc(C(=O)NCc2ccco2)ccc1Sc1ccc(F)cc1 | inconclusive [inhibitor, single point] | – |
| CCCCc1ccc(NC(=O)CSc2nc(=O)n(CCN(CC)CC)c3c2CCCC3)cc1 | inconclusive [inhibitor, full curve] | – |
| CCOc1ccc(CNS(=O)(=O)c2c(C(=O)N3CCC(C)CC3)c(C)n(C)c2C)cc1OC | inactive | – |
| O=S(=O)(Nc1ccc(-c2ccc(N3CCCC3)nn2)cc1)c1ccc(Cl)cc1 | inconclusive [inhibitor, partial curve, poor fit] | – |
| O=C(CSc1nnc(-c2ccccn2)o1)Nc1ccc(F)cc1 | inconclusive [inhibitor, single point] | – |
| CCN(CC)CCCN(Cc1cc2cc3c(cc2[nH]c1=O)OCO3)C(=O)Nc1ccccc1OC | inconclusive [inhibitor, partial curve, poor fit] | – |
| COC(=O)C(=C/C(C)=C/c1cccs1)C(=O)OC | inconclusive [inhibitor, single point] | – |

| Compound | Potency | activity change, negative = inhibition |
| --- | --- | --- |
| CC(=O)/C(=N/Nc1ccc(Br)cc1)Sc1cccc2cccnc12 | inconclusive [inhibitor, partial curve] | – |
| COCCCNC(=O)Cn1ncc2ccsc2c1=O | inactive | – |
| Cc1ccc(S(=O)(=O)N2CCC(=O)N(C(COCc3cccc(C)c3)C(C)C)CC2)cc1 (configuration not stated) | inconclusive [inhibitor, single point] | – |
| Cc1cccc(N2CCN(C(=O)C3CC(=O)N(c4ccc5c(c4)OCCO5)C3)CC2C)c1 (configuration not stated) | inconclusive [inhibitor, partial curve, poor fit] | – |
| COc1ccc(-n2nnnc2C(C2CC2)N2CCN(C/C=C/c3ccccc3)CC2)cc1 (configuration not stated) | inconclusive [inhibitor, single point] | – |
| C=CCNC(=O)CN1CCN(C(c2ccccc2)c2ccccc2)CC1 | inconclusive [inhibitor, single point] | – |
| COc1ccccc1N1CCN(CC(O)COc2ccc3c(c2)OCO3)CC1 (configuration not stated) | inconclusive [inhibitor, single point] | – |
| CN(Cc1ccccc1)C(=O)COC(=O)C12CC3CC(CC(Br)(C3)C1)C2 | inconclusive [inhibitor, single point] | – |
| CCCCC1NC(=S)N(C2CCCCC2)C1=O (configuration not stated) | inconclusive [inhibitor, single point] | – |
| CC(=O)c1oc2ccccc2c1N | inactive | – |
| CC1(C(=O)Nc2cccc(NS(C)(=O)=O)c2)CCN1CCc1ccccc1 (configuration not stated) | inconclusive [inhibitor, partial curve, poor fit] | – |
| CCn1ncc(/C=N\NC(=O)COc2cc(C)cc(C)c2)c1C | inconclusive [inhibitor, partial curve, poor fit] | – |
| Cc1ccccc1-c1nn(-c2ccccc2)cc1C(=O)NCC(c1ccco1)N1CCCC1 (configuration not stated) | inconclusive [inhibitor, partial curve, poor fit] | – |
| COc1ccc(S(=O)(=O)N(CCc2ccccc2)CC(=O)Nc2ccc(C)c(C)c2)cc1OC | inconclusive [inhibitor, single point] | – |
| COC(=O)c1cc2c(C)c(C)c3ccccn3c-2c1C(=O)OC | inactive | – |
| CCCCN(CC)S(=O)(=O)N1CCC(C(=O)NCc2ccc(F)cc2)CC1 | inconclusive [inhibitor, single point] | – |
| CN(C)S(=O)(=O)c1ccc(NC(=O)COC(=O)Cn2[nH]c(=O)c3ccccc3c2=O)cc1 | inconclusive [inhibitor, full curve, poor fit] | – |
| CCN(CCN1CCCC1)C(=O)c1cc(COc2ccccc2SC)on1 | inconclusive [inhibitor, single point] | – |
| CCc1nc2ccc(C(=O)N3CCN(c4ccccc4)CC3)cc2nc1CC | inconclusive [inhibitor, single point] | – |
| COc1ccc2c(c1)CCc1c(C(=O)Nc3ccc(F)c(Cl)c3)noc1-2 | inactive | – |
